Results published in PubChem BioAssay AID485344 (National Center for Advancing Translational Sciences (NCATS), 2010).
About 6,900 (2%) of roughly 340,000 compounds were called active. No stated cut-off is given here; in the data, active means inhibition above about 30%; inactive means below that, where a call was filed. The entries are a selection whose mix differs from that of the whole data set. Where no call is shown, the source filed none.
Further: 0% is about no effect.

What follows are molecules tested against D(2) dopamine receptor (Homo sapiens) (UniProt P14416) (assay: HTS Assay for Allosteric Antagonists of the Human D2 Dopamine Receptor: Primary Screen for Antagonists). Conditions: HEK293 TREx D2 cells, calcium flux, dopamine EC80; at 10 µM; stronger effect = higher value.
UniProt P14416, sequence (P14416 whole entry, looked up): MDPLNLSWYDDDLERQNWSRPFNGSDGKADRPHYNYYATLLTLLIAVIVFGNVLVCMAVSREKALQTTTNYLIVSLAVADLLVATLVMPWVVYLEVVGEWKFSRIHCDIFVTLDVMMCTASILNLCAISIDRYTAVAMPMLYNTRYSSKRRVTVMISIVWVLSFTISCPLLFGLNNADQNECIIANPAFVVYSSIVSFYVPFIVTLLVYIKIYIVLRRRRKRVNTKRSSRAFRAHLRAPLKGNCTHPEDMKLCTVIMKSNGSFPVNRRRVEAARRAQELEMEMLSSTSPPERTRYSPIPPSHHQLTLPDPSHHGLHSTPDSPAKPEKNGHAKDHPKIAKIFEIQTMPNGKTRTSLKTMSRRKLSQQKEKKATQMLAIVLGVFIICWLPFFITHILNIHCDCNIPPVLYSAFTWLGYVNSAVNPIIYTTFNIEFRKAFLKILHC
Procedure, shortened: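 Read-out: kinetic calcium fluorescence (1 cycle/s) in inducible HEK293 T-REx D2 cells after an EC80 dopamine addition that followed 180 s compound preincubation. Loss of the dopamine response indicates antagonism.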
Work on `CC(=O)c1cc(C(=O)Nc2cc(C)cc(C)c2)c2ccccn12` yielded an inhibition of 13.5%. `Cc1ccc2c(c1)cc1c(=O)n(CC(=O)NC3CCCCC3)nc(C)n12` gave an inhibition of 1.92%. With `CCOC(=O)CC1c2cc(OCC)c(OCC)cc2CCN1C(=O)Nc1cccc(Cl)c1` (stereo not given) the inhibition was 6.18%. `Cc1cccn2c(=O)c3cc(C(=O)NCc4ccccc4)c(=N)n(CCOCCO)c3nc12` showed an inhibition of -18.6%. `Cc1ccc(S(=O)(=O)c2nc(-c3cccc(C)c3)oc2N2CCN(c3ccccc3)CC2)cc1` gave an inhibition of 1.68%. Work on `Cc1ccc(CNC(=O)c2ccc3c(=O)n(-c4ccccc4)c(=O)[nH]c3c2)cc1` yielded an inhibition of -0.496%. `CCCSc1ncc(Cl)c(C(=O)Nc2nc3ccc(OCC)cc3s2)n1` showed an inhibition of -1.95%. `COC(=O)c1sc2cccc(F)c2c1S(=O)(=O)N1CCN(c2ccc(F)cc2)CC1` showed an inhibition of 5.31%. For `Cc1nc2nc(SCC(=O)NCCc3ccc(Cl)cc3)nn2c(C)c1Cc1ccccc1`, the inhibition was -4.48%. Molecule `COc1cc(OC)c(NC(=O)NCc2ccc3c(c2)CCN3C(=O)c2ccccc2)cc1Cl` has an inhibition of 7.52%. In the case of `COc1ccc(NC(=O)CSc2nc3c(oc4ccccc43)c(=O)n2-c2ccc(C)c(C)c2)cc1`, the inhibition is reported as 4.71%. In the case of `COc1cc2c(cc1OC)C1C/C(=N\O)C(CC(C)C)CN1CC2` (stereo not given), the inhibition is reported as active: 59.7%. Molecule `CCOC(=O)c1c(NC(C)=O)c2c3c(sc2n1Cc1nc(-c2ccccc2C)oc1C)CCCC3` has an inhibition of -13.8%. For `O=C(Nc1nc2ccc(F)cc2s1)c1nc(S(=O)(=O)Cc2ccccc2)ncc1Cl`, the inhibition was -1.13%. `CC1CN(C(=O)CCC(=O)NCc2ccc(F)cc2)c2cc(Cl)ccc2O1` (stereo not given) showed an inhibition of 10.4%. In the case of `O=C(CN1C(=O)CCSc2ccccc21)Nc1ccccc1F`, the inhibition is reported as -2.98%. Molecule `CCOc1ccc(CCNC(=O)C2COc3ccccc3C2)cc1OCC` (stereo not given) has an inhibition of -2.89%. `CC(C)CCNC(=O)C1CCC(Cn2c(=O)c3sccc3n(CC(=O)NC(C)C)c2=O)CC1` (stereo not given) gave an inhibition of 2.95%. In the case of `O=C(Cn1c(=O)n(-c2ccc(F)c(Cl)c2)c(=O)c2sc3ccccc3c21)NC1CCCC1`, the inhibition is reported as -10.2%. `Cc1ccc(-n2c(=O)c3oc4ccccc4c3n(Cc3ccccc3F)c2=O)cc1C` gave an inhibition of 2.32%. For `CCC(C)NC(=O)C(=O)Nc1c2c(nn1-c1ccccc1)CS(=O)(=O)C2` (stereo not given), the inhibition was -7.3%. `Cc1ccc(CNC(=O)Cn2cc(C(=O)c3ccc(F)cc3)c(=O)c3ccc(C)nc32)cc1` was tested, and the inhibition was -0.363%. Work on `CCOC(=O)C1CCN(C(=O)C2CCN(C3=NS(=O)(=O)C(c4ccc(C)c(C)c4)=C3C)CC2)CC1` yielded an inhibition of 18.3%. For `CCc1ccc(Cc2cnc(NC(=O)c3ccc4c(c3)CC(c3ccccc3)OC4=O)s2)cc1` (stereo not given), the inhibition was 2.11%. `Cc1cccc(C2CC(=O)Oc3c2c(=O)n(C)c2ccccc32)c1` (stereo not given) was tested, and the inhibition was 6.1%. In the case of `CC(CC(=O)Nc1ccc(Br)cc1F)S(=O)(=O)c1ccc2c(c1)NC(=O)CO2` (stereo not given), the inhibition is reported as 10%. `CC(C)c1ccc(C2N=C(N)Nc3nc4ccccc4n32)cc1` (stereo not given) gave an inhibition of 16.4%. Work on `Cc1c(C)n(C)c2ccc(C(=O)N3CCN(c4ccccc4)CC3)cc12` yielded an inhibition of 1.8%. `Cc1c(Cl)cccc1NC(=O)C(C)n1nnc2sc3c(c2c1=O)CCCC3` (stereo not given) showed an inhibition of -11.6%. Work on `CSc1ncc(Cl)c(C(=O)N(Cc2ccc(N(C)C)cc2)Cc2ccco2)n1` yielded an inhibition of 7.12%. In the case of `Cc1cc(C)cc(NC(=O)Cn2c(=O)c3ccccc3n3nncc23)c1`, the inhibition is reported as -7.36%. Molecule `Cc1ccc2c(=O)cc(C(=O)Nc3ccc(S(=O)(=O)N4CCCCCC4)cc3)oc2c1C` has an inhibition of 6.23%. For `CCc1ccc(CNC(=O)CN2C(=O)c3cccnc3Oc3ccc(C)cc32)cc1`, the inhibition was -8.58%. `CCOC(=O)c1ccccc1NC(=O)c1sc2nc3n(c(=O)c2c1C)CCCC3` was tested, and the inhibition was -5.07%. `CC1=C(c2ccc(C)cc2)S(=O)(=O)N(Cc2ccc(C(=O)Nc3ccc(F)cc3C)cc2)C1=O` gave an inhibition of 3.08%. In the case of `COc1ccccc1NC(=O)CN1C(=O)C2(SCC(=O)N2c2ccc(C)c(C)c2)c2ccccc21` (stereo not given), the inhibition is reported as -4.93%. `Cc1ccc(N(CC(=O)Nc2cc(C)cc(C)c2)S(=O)(=O)c2cccc3nonc23)cc1` gave an inhibition of -11.8%. In the case of `O=C(NCCCN1CCN(c2ccc(F)cc2)CC1)Nc1ccc([N+](=O)[O-])cc1`, the inhibition is reported as active: 45.2%. Molecule `NS(=O)(=O)c1ccc(NC(=O)c2ccc3c(c2)CCN3S(=O)(=O)c2ccccc2)cc1` has an inhibition of 8.37%. With `CCn1ccc2cc(S(=O)(=O)N3CCC(C(=O)NCCc4ccc(C)cc4)CC3)ccc21` the inhibition was 19.8%. `COc1cc(OC)cc(C(=O)NCC(c2cccs2)S(=O)(=O)c2ccc(F)c(C)c2)c1` (stereo not given) was tested, and the inhibition was -1.84%. `COc1ccc(CNC(=O)c2cccc(-n3cnc4cccnc43)c2C)cc1` gave an inhibition of 3.07%. `CCOc1ccc(NC(=O)Cn2ccn(-c3ccc(F)c(F)c3)c(=O)c2=O)cc1` gave an inhibition of -7.35%. `COc1cccc(C(=O)Nc2ccc(-c3cn4cccnc4n3)cc2)c1OC` showed an inhibition of -1.1%. `O=C(CN1C(=O)COc2ccccc21)NCCCN1CCN(c2ccccc2F)CC1` was tested, and the inhibition was active: 77.6%. `CCOCCSc1c(C)cnc2c1c(=O)n(C)c(=O)n2C` gave an inhibition of 9.28%. In the case of `COc1cc2ccccc2cc1C(=O)Nc1ccc(Cl)c(-c2nc3ccccc3o2)c1`, the inhibition is reported as -16.8%. `Cc1ccc(N2C(=O)c3[nH]nc(-c4ccc(Cl)cc4)c3C2c2ccc(F)cc2)cc1` (stereo not given) showed an inhibition of 5.84%. `COC(=O)C(CCSC)NC(=O)c1c(C)oc2ncn(CC(C)C)c(=O)c12` (stereo not given) gave an inhibition of 4.07%. `Cc1ccc(NC(=O)C(=O)NCC(c2cccnc2)N2CCN(C)CC2)cc1F` (stereo not given) showed an inhibition of 17.2%. For `O=C(c1cc2ccccc2o1)N1CCN(Cc2ccc3c(c2)OCO3)CC1`, the inhibition was active: 77.7%. In the case of `CCOC(=O)c1ccc(NC(=O)c2ccc3c(c2)NC(=O)c2ccccc2S3)cc1`, the inhibition is reported as 15.7%. For `O=C(NCc1cccnc1)c1ccc(-c2cc(Cl)ccc2Cl)o1`, the inhibition was active: 49.9%. `Cc1c(Cl)cccc1NC(=O)CSc1ncccc1C(=O)Oc1ccccc1Cl` showed an inhibition of 15.6%. Molecule `COc1cccc(-n2c(=O)c3c(C)c(C(=O)N(C)C)sc3n(CC(=O)NCCc3ccc(OC)c(OC)c3)c2=O)c1` has an inhibition of 24.4%. `NC(=O)c1cccnc1` was tested, and the inhibition was active: 40.4%. Work on `CCc1ccc(NC(=O)CSc2nc3nccnc3c(=O)n2CCc2c[nH]c3ccccc23)cc1` yielded an inhibition of -15.1%. `COc1ccc(-c2nc(C)c(CCNC(=O)Cc3ccc(F)cc3)s2)cc1OC` showed an inhibition of 25.7%. `CCOc1ccc(OCC)c(NC(=O)C2CCN(S(=O)(=O)c3ccc(Br)s3)CC2)c1` was tested, and the inhibition was 6.68%. `COc1ccc2nc(SCC(=O)c3c(C)[nH]c4ccccc34)nc(C)c2c1` was tested, and the inhibition was 0.994%.
